{"source": "PubChem BioAssay AID1468", "about": "(National Center for Advancing Translational Sciences (NCATS), 2008)", "note": "Several values for one entry are separate records, joined by “and”; a condition that tells them apart may be missing. Identical values can stand only once. Among all 280,000 compounds or so, about 1,100 (0.39%) were called active. This list was built around the results that the source calls inconclusive (neither active nor inactive); the mix of calls is not that of the screen. Calls follow the shape of the dose curve; as a rule, active = well fitted inhibition curve with a large enough effect; inconclusive = small, poorly fitted or top-dose-only effect, or effect the other way; inactive = flat fitted curve, though single readings scatter. Potencies of inconclusive entries are doubtful fits and often do not repeat."}
{"target": "Microtubule-associated protein tau (Homo sapiens) (UniProt P10636)", "sequence (P10636 whole entry, looked up, the tested form may be a part)": "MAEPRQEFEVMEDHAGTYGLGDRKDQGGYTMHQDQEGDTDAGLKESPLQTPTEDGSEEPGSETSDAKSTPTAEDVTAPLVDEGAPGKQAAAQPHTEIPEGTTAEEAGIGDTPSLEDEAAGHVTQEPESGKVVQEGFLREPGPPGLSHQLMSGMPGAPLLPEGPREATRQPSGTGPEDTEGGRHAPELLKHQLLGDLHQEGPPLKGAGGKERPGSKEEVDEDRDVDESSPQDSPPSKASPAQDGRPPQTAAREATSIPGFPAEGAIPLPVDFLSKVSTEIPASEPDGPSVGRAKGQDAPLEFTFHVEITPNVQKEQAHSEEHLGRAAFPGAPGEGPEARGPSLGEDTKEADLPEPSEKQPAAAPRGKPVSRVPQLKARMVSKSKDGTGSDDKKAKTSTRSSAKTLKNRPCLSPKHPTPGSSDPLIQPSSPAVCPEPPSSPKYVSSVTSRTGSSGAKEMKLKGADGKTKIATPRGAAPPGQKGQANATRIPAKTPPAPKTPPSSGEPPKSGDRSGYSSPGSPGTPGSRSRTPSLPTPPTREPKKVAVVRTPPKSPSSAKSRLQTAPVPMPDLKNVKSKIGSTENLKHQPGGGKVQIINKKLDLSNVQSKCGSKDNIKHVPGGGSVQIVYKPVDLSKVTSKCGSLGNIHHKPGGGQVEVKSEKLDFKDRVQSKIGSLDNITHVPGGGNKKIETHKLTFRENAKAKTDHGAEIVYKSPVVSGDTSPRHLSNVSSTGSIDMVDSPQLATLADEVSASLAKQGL", "test": "qHTS for Inhibitors of Tau Fibril Formation, Fluorescence Polarization; also: nearly all actives have a fitted effect of over 55% in size; also: potency is read from the fitted curve at half-maximal effect; tags tell the direction and shape of the fitted curve", "details": "K18 P301L tau heparin fibrillization, Alexa594 FP, 6 h; series mostly up to 57.7 µM", "summary_of_the_method": "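Human tau K18 […] P301L fragment, 15 uM unlabeled plus 0.24 uM Alexa 594-labeled tau (final), with compound and 20 uM heparin in 100 mM sodium acetate pH 7; 6 hr at 37 C, then Alexa 594 FP read.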"}
{"compound": "CC(Oc1ccccc1Cl)c1nnc(N)s1", "note": "(centres undefined)", "Potency": "inactive"}
{"compound": "S=C(NCCCc1ccccc1)Nc1ccc(Cl)cc1", "Potency": "inconclusive: 35.5 µM [inhibitor, partial curve]"}
{"compound": "Cc1ccc(NC(=O)/C(C#N)=C(\\N)C(Cl)(Cl)Cl)nc1", "Potency": "inconclusive: 35.5 µM [inhibitor, partial curve]"}
{"compound": "Cc1ccc(S(=O)(=O)/N=C2/C=C(Sc3ncn[nH]3)C(=O)c3ccccc32)cc1", "Potency": "active: 14.1 µM"}
{"compound": "Cc1nn(C(C)C(=O)NC2C(=O)N3C(C(=O)O)=C(CSc4nnnn4C)CSC23)cc1Cl", "note": "(centres undefined)", "Potency": "inactive"}
{"compound": "Oc1[nH]c2ccccc2c1N=Nc1ccccc1F", "Potency": "inactive"}
{"compound": "CCOC(=O)c1ccc(N2CCN(c3ccccc3F)CC2)c(NC(=O)Nc2cccc(OC)c2)c1", "Potency": "inconclusive: 28.2 µM [inhibitor, single point]"}
{"compound": "COc1cc(CNCCC2CCOC(C)(C)C2)ccc1O", "note": "(centres undefined)", "Potency": "inactive"}
{"compound": "CC(=O)c1ccc(NC(=O)c2cn(-c3ccccc3)nc2-c2ccncc2)cc1", "Potency": "inconclusive: 12.6 µM [inhibitor, partial curve]"}
{"compound": "Cc1nn2c(NC(C)C)c3c(nc2c1-c1ccccc1)CCC3", "Potency": "inconclusive: 44.7 µM [inhibitor, single point]"}
{"compound": "COC(=O)[C@@]1(Cc2ccc(OC)cc2)[C@H]2c3cc(C(=O)N4CCCC4)n(CCc4c[nH]c5cc(F)ccc45)c3C[C@H]2CN1C(=O)c1ccccc1", "Potency": "inactive"}
{"compound": "O=C(Cn1nc(C(F)F)cc1C(F)F)NNC(=S)Nc1ccc(Cl)cc1", "Potency": "inactive"}
{"compound": "CC(=O)N1C(=O)/C(=C2\\SC(=S)N(NS(=O)(=O)c3ccc(C)cc3)C2=O)c2ccccc21", "Potency": "inconclusive: 25.1 µM [inhibitor, single point]"}
{"compound": "CCN1C(=O)c2cccc3c(S(=O)(=O)NCCc4c[nH]c5ccccc45)ccc1c23", "Potency": "inconclusive: 39.8 µM [activator, single point]"}
{"compound": "COc1ccccc1Nc1nc(Cl)c(C=O)s1", "Potency": "inactive"}
{"compound": "Cc1ccc2nc(-c3ccc(SCC(=O)Nc4cc(C)on4)nc3)[nH]c2c1", "Potency": "inconclusive: 8.91 µM [inhibitor, full curve, poor fit]"}
{"compound": "Cc1ccc(-c2nc3cccc(C)n3c2Nc2ccc3c(c2)OCO3)o1", "Potency": "inconclusive: 3.55 µM [activator, single point]"}
{"compound": "Cc1onc(-c2c(F)cccc2Cl)c1-c1nnc(-c2cccc3ccccc23)o1", "Potency": "inconclusive: 17.8 µM [inhibitor, partial curve, poor fit]"}
{"compound": "COc1ccc(/C=N/NC(=O)c2nn(-c3ccc(Cl)cc3)c(=O)c3c(N)scc23)cc1", "Potency": "inconclusive: 11.2 µM [inhibitor, partial curve]"}
{"compound": "O=C(N/N=C/c1ccc(-c2ccccc2[N+](=O)[O-])o1)c1cccnc1", "Potency": "inconclusive: 7.08 µM [inhibitor, partial curve]"}
{"compound": "O=C(c1cc(-c2ccc(Br)cc2)n[nH]1)N1CCN(S(=O)(=O)c2ccc(Cl)s2)CC1", "Potency": "inconclusive: 10 µM [inhibitor, partial curve, poor fit]"}
{"compound": "COCCCn1c(SCC(=O)Nc2ccc(OC)cc2)nc2c(sc3ccccc32)c1=O", "Potency": "inactive"}
{"compound": "O=C(CSc1nc(=O)n(CCN2CCOCC2)c2c1CCC2)Nc1ccc(F)cc1F", "Potency": "inconclusive: 44.7 µM [inhibitor, single point]"}
{"compound": "CCCCSc1nc2c(cc1C#N)CCC2", "Potency": "inactive"}
{"compound": "CCC(=O)Oc1c(Sc2ccc(C)cc2)c(C)nn1-c1ccccc1", "Potency": "inconclusive: 25.1 µM [inhibitor, single point]"}
{"compound": "COc1ccc(OCCC(=O)OCC(=O)NC2CCCCCCC2)cc1", "Potency": "inactive"}
{"compound": "CC(=O)c1cccc(NC(=O)COc2ccccc2)c1", "Potency": "inconclusive: 28.2 µM [inhibitor, single point]"}
{"compound": "O=C1[C@@H]2Cc3c([nH]c4ccccc34)[C@@H](c3ccccc3)N2C(=O)[C@@H]2Cc3c([nH]c4ccccc34)[C@@H](c3ccccc3)N12", "Potency": "inconclusive: 20 µM [inhibitor, single point]"}
{"compound": "COc1ccc(C(=O)c2oc3ccc(Br)cc3c2NC(C)=O)cc1", "Potency": "inconclusive: 12.6 µM [inhibitor, partial curve]"}
{"compound": "O=C(N/C(=C/c1ccco1)C(=O)N1CCc2ccccc21)c1ccco1", "Potency": "inconclusive: 20 µM [inhibitor, single point]"}
{"compound": "CCOC(=O)CC(NC(=O)Cn1nnc(-c2ccc(Cl)cc2)n1)c1ccc(OC)cc1", "note": "(centres undefined)", "Potency": "inconclusive: 8.91 µM [inhibitor, full curve]"}
{"compound": "Cn1c(CN2CCOCC2)nc2cc(NC(=O)c3ccccc3[N+](=O)[O-])ccc21", "Potency": "inactive"}
{"compound": "COc1ccc(-c2coc3cc(O)cc(O)c3c2=O)cc1", "Potency": "inconclusive: 17.8 µM [inhibitor, partial curve] and inconclusive: 39.8 µM [inhibitor, single point]"}
{"compound": "CCOC(=O)c1c(C)[nH]c(C)c1C(=O)COC(=O)/C=C/c1cccc(Cl)c1", "Potency": "inconclusive: 25.1 µM [inhibitor, partial curve]"}
{"compound": "COc1cc(C2Nc3cc(Cl)c(S(N)(=O)=O)cc3S(=O)(=O)N2)ccc1OCc1ccccc1", "note": "(centres undefined)", "Potency": "inactive"}
{"compound": "Cc1cccc2nc(CSc3nc4ccc([N+](=O)[O-])cc4[nH]3)c(Br)n12", "Potency": "inconclusive: 15.8 µM [inhibitor, partial curve, poor fit]"}
{"compound": "O=C(c1n[nH]c2c1CCCC2)n1ccnc1", "Potency": "inconclusive: 7.08 µM [inhibitor, single point]"}
{"compound": "Cc1ccccc1-c1noc(-c2ccc(NCc3cccnc3)c([N+](=O)[O-])c2)n1", "Potency": "inactive"}
{"compound": "Cc1cccc(C(=O)n2c(=S)nc3cc(C)ccn32)c1", "Potency": "inconclusive: 0.398 µM [inhibitor, full curve, poor fit]"}
{"compound": "CC(=O)c1cccc(NC(=O)Cn2ccn3nc(-c4ccccc4)cc3c2=O)c1", "Potency": "inactive"}
{"compound": "O=C(COc1ccccc1-c1nc(-c2ccccc2)no1)Nc1ccc([N+](=O)[O-])cc1", "Potency": "inactive"}
{"compound": "CN1CCN(CCCNC(=O)c2ccc(/C=C3\\Sc4ccccc4N(Cc4ccccc4F)C3=O)cc2)CC1", "Potency": "inconclusive: 22.4 µM [inhibitor, partial curve, poor fit]"}
{"compound": "Cc1ccc(NCCC(=O)c2cccc([N+](=O)[O-])c2)c(C)c1", "Potency": "inconclusive: 44.7 µM [activator, single point]"}
{"compound": "FC(F)(F)c1cc(-c2ccco2)nc(NCc2ccc(Cl)cc2)n1", "Potency": "inconclusive: 31.6 µM [inhibitor, single point]"}
{"compound": "Cc1ccc(-c2nc3sc(CCNC(=O)c4ccc(F)c(F)c4)c(C)n3n2)cc1", "Potency": "inconclusive: 15.8 µM [inhibitor, partial curve]"}
{"compound": "O=S(=O)(NCCNC/C=C/c1ccc(Br)cc1)c1cccc2cnccc12", "Potency": "inconclusive: 0.112 µM [inhibitor, partial curve, poor fit]"}
{"compound": "Cc1ccc([N+](=O)[O-])cc1NC(=O)c1ccoc1C", "Potency": "inactive"}
{"compound": "FC(F)(F)c1cccc(Nc2nc3nonc3nc2Nc2ccc(Cl)cc2)c1", "Potency": "inconclusive: 2.51 µM [inhibitor, full curve]"}
{"compound": "CCCc1cc(=O)[nH]c(Nc2cc(Cl)cc(Cl)c2)n1", "Potency": "active: 11.2 µM"}
{"compound": "COc1ccc(-n2c(SCC(N)=O)nc3sc4c(c3c2=O)CCN(C)C4)cc1", "Potency": "inconclusive: 25.1 µM [inhibitor, single point]"}
{"compound": "Cc1ccccc1-c1nc(CNC(=O)NC2CCCCC2)c(C)o1", "Potency": "inactive"}
{"compound": "CC(C)c1ccc(C2CC(=O)N3CN(C4CCCCC4)CSC3=C2C#N)cc1", "note": "(centres undefined)", "Potency": "inconclusive: 25.1 µM [inhibitor, partial curve]"}
{"compound": "Nc1ccc2nc(-c3ccc(N)c(Cl)c3)[nH]c2c1", "Potency": "inconclusive: 15.8 µM [activator, partial curve]"}
{"compound": "CCn1cc2nc(SCc3cc(C)ccc3C)n(Cc3ccc(Cl)cc3)c(=O)c2n1", "Potency": "inactive"}
{"compound": "COc1ccc(-c2csc(NC(=O)C3CC(=O)N(c4ccc5c(c4)OCCO5)C3)n2)cc1", "note": "(centres undefined)", "Potency": "inactive"}
{"compound": "O=C(Nc1ccc(NC(=O)C2CC2)cn1)c1ccccc1Cl", "Potency": "inactive"}
{"compound": "Cc1ccccc1Nc1c(-c2ccc(N3CCOCC3)cc2)nc2cccc(C)n12", "Potency": "inactive"}
{"compound": "O=C(CCS(=O)(=O)c1ccc(Br)s1)Nc1cc(C(F)(F)F)cc(C(F)(F)F)c1", "Potency": "active: 20 µM"}
{"compound": "Cn1cc(/C=C2\\SC(=S)N(NC(=O)c3cccc(Cl)c3)C2=O)c2ccccc21", "Potency": "inactive"}
{"compound": "O=C(NCc1ccccc1)NC1COc2ccccc2C1", "note": "(centres undefined)", "Potency": "inactive"}
{"compound": "Cc1cnc(NC(=O)CSc2nnc(COc3c(C)cccc3C)o2)s1", "Potency": "inactive"}
{"compound": "COc1ccc(Nc2ncccc2C(=O)NCc2ccccc2)cc1", "Potency": "inconclusive: 20 µM [activator, partial curve]"}
{"compound": "COc1ccccc1NS(=O)(=O)c1cc(NC(=O)c2sc3cc(Cl)ccc3c2Cl)ccc1C", "Potency": "inconclusive: 17.8 µM [inhibitor, partial curve]"}
{"compound": "Cc1ccc(S(=O)(=O)Nc2cc(Cl)c3oc4c(c3c2)CCCC4)cc1", "Potency": "inconclusive: 11.2 µM [inhibitor, partial curve]"}
{"compound": "O=C(CC1C(=O)CCCC1=O)c1ccccc1", "Potency": "inconclusive: 25.1 µM [inhibitor, single point]"}
{"compound": "CCOC(=O)c1cccc(NC(=O)CSc2ncc3c(n2)-c2ccc(Cl)cc2N(Cc2ccccc2)S3(=O)=O)c1", "Potency": "inconclusive: 10 µM [inhibitor, partial curve]"}
{"compound": "COc1ccccc1CNC(=O)CCS(=O)(=O)c1ccc2c(c1)oc(=O)n2C", "Potency": "inactive"}
{"compound": "Cc1c(-c2nsc(NC(=O)c3cccs3)n2)nnn1-c1ccc(F)cc1", "Potency": "inconclusive: 17.8 µM [inhibitor, partial curve, poor fit]"}
{"compound": "CCOC(=O)c1ccc(NC(=O)C2CCCN(S(=O)(=O)c3ccc(F)cc3)C2)cc1", "note": "(centres undefined)", "Potency": "inconclusive: 11.2 µM [inhibitor, single point]"}
